# Measured values from the supplement of paper PMC11417369.
# ± gives the standard deviation of the averaged measurements. The list shows a part of the results.
# Tested on: PfAP2-I AP2 domain 3 (GST-tagged)
# Experiment: gcPBM binding intensity (ln(normalized median fluorescence intensity)); higher = stronger DNA binding
# In short: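 Probes on an Agilent 4 × 180k array were primer-extended, double-stranded and 36 bp long, taken from intergenic genomic regions, with negative controls added. GST-tagged P. falciparum DNA-binding domains from E. coli, about 25 μg on average, were applied to the array for 1 h in 1× PBS containing 1% milk, 0.2 mg/ml BSA, 0.5% salmon testes DNA and 0.03% Triton X-100. Binding intensity, obtained after Alexa488 anti-GST antibody detection and a 488 nm scan, is the highest Masliner-normalised natural-log median intensity across replicate spots of either probe orientation.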
row,Sequence,gcPBM binding intensity (ln)
1,TGTATGCTTACATAATGTACGGAAAAATAAAGGCAT [XGTACX_site6923],8.62 ± 0.83
2,ATATATAAATAATGTTGTACGTATTTCAAAAGTATG [XGTACX_site3363],7.87 ± 0.3
3,TGCTCTCTCTTGTTGTGTACATAATACAATATATAT [XGTACX_site7427],8.49 ± 0.26
4,TACATTTAAAAAAAAACACACATATATATATATATA [CACACA_site2535],9.45 ± 0.35
5,ATATATTTGTATAATAGTACGTACAGGCAAAATATA [XGTACX_site7396],8.38 ± 0.38
6,AAAAAAAAAAAACACACACACACATACCCATACATA [CACACA_site5575],7.9 ± 0.37
7,TTTCTTTTTATATTCACACATAAATATATATATATA [CACACA_site6053],9.14 ± 0.16
8,TATATAAGGAAATATTGTACTTTTATATTTATATTA [XGTACX_site3814],7.44 ± 0.34
9,ATATAAAAATATAATACACACATAAAATATATTATA [CACACA_site969],7.75 ± 0.19
10,AGATATAAGAAAAGCACACACACACTAGAAAAAAAA [CACACA_site5559],8.27 ± 0.42
11,TAATTCTTGTAAAATGTGCGCAGTAGATATAGTTTT,8.57 ± 0.52
12,ATATTTATTCAATCCAGTACATATTATATATTGTAT [XGTACX_site184],7.68 ± 0.56
13,ATAAAATTATATACGTGTACATATATATATTTATGT [XGTACX_site4653],8.14 ± 0.82
14,TATAAAAGTGGACACACACACATATATATATATATA [CACACA_site4673],9.47 ± 0.55
15,ACACATCAAATATAAAAAAAAAATAACTATAAATAA [CACACA_negctrl_site587],7.39 ± 0.51
16,CCTTTAAGCAAAAACACACACACATATTTATTTATA [CACACA_site6294],7.79 ± 0.47
17,AATTTTTTTTTTTTGTTGCACTTTTAGAGTTTTAAT [GTGCAC_site9519],9.78
18,TAATAAATAGGACACACACACATATTTATATATCAT [CACACA_site6771],7.88 ± 0.52
19,TTGCAAAATTGTTTTATCACAAATATATACTTAATA [CACACA_negctrl_site403],7.55 ± 0.49

row,Sequence,gcPBM binding intensity (ln)
1,TAATTATTTTCGGTACGTACTAATGTATATATAATT [XGTACX_site3895],7.84 ± 0.44
2,TAATAATTTTTTTTTTTTTTTTACGAAAATATGATT [GTGCAC_negctrl_site323],7.27 ± 0.4
3,ATAATAAGAACTCAGTGTACTATCCTTTGAATTAAC [XGTACX_site8117],7.83 ± 0.56
4,AACGTCTTTTTTTTTTTTTTTCTTTTTTTTTTTATT [CACACA_negctrl_site303],7.3 ± 0.67
5,TCCTTTTGAACCCTTTTTCTCACAAGACCTTTATAT [TGCATGCA_negctrl_site413],8.01 ± 0.42
6,TTTCGTTGTGTATTTTGTACATATTTTTAATTATAT [XGTACX_site6687],7.88 ± 0.59
7,AATATAAATATAAATTGTACTTAAAAATTTCACGCA [XGTACX_site5234],7.54 ± 0.28
8,TTAAAAAACTATAATACACACCAAAAATATGCACAT [CACACA_site7079],9.44 ± 0.7
9,TTATTTCAAAGTTGTTGTACAAAAATATATTTATAA [XGTACX_site5226],8.02 ± 0.42
10,AAGAAAAAGATGCGCATACACACAGATGAATAACAA [CACACA_site1627],8.13 ± 0.87
11,TTTCTTTTTTAAATTAAAATTTTTTTTTTTTTCGGT [TGCATGCA_negctrl_site52],7.27 ± 0.51
12,AAAGGTGTATTTAATACACACGTGTCATTAAAATTG [CACACA_site4508],8.19 ± 0.4
13,TATATAAATTATGTGAGTACATAATTTAGAAGGAAC [XGTACX_site2807],7.97 ± 0.38
14,AAAAAAATAATGTACACACACATATATGTTTATATA [CACACA_site6234],8 ± 0.26
15,AATTAAAAAGTTTTTAATGTTTTTAATTTTTTCCAC [XGTACX_negctrl_site423],7.49 ± 0.48
16,ATTAATATTTAGACTTGTACATATATAATATATGTC [XGTACX_site3766],7.54 ± 0.29
17,CTTTTTTGTAATAACACACACACAAACAGAAAAAAT [CACACA_site2075],8.43 ± 0.42
18,ATAAAATATCAATACCGTACACAAGCAGGTAAAATA [XGTACX_site3719],7.82 ± 0.8
19,AAAAAAAAAAAAAAAACACACAGAAATATATATATA [CACACA_site4611],9.1 ± 0.14

row,Sequence,gcPBM binding intensity (ln)
1,AAAGAAGGGAAACACACACACACACCCACAAAAAAA [CACACA_site3766],8.17 ± 0.21
2,TTTATATATTTTAGGAGTACATTAAATTATACCTTA [XGTACX_site5600],7.83 ± 0.31
3,TGTATATATATTTATGCATGCTGTGTGTATTCTTTT [TGCATGCA_site74],7.89 ± 0.7
4,AATAAAAAAAAAATAAATTTAATAATAATAATAAAA [CACACA_negctrl_site569],7.16 ± 0.71
5,TATAACAAAAAAAAATAAAAAATAAAACTATATATA [CACACA_negctrl_site504],7.25 ± 0.56
6,TTTTTTTTTTATTCTTCACACATTTCCAATAAAAAA [CACACA_site5601],8.3 ± 0.75
7,ACCTAAAATAACTACACACACATAAAAAAAAAAAAA [CACACA_site2529],7.96 ± 0.39
8,GTTATTATATATATGTGTACTTAAAAATTTTATGTC [XGTACX_site6084],8.17 ± 0.45
9,TCACATATATATTAATGTACATATATTTTTTATGTA [XGTACX_site5125],7.52 ± 0.38
10,GATATATCCTATGTTATTTTTATGGTGTAATTTAGT [XGTACX_negctrl_site112],7.88 ± 0.48
11,CAATGTTAACATATTACACACATATGTATATATAAT [CACACA_site8878],7.79 ± 0.53
12,GACAACTCTTTTCATACACACAAAAAAAAAAAAATA [CACACA_site2361],7.74 ± 0.25
13,TTTTTTTTATGTATCACACATAATTTTTTATTATGA [CACACA_site5534],7.63 ± 0.68
14,AGAAAGAAAATATATACACACAAAAAAAAATATATA [CACACA_site1412],7.69 ± 0.54
15,CATCCACAAATATGTACACACATATATAAATATGTA [CACACA_site7407],7.89 ± 0.44
16,ATAATAACAAGGCGCTGTACTGTACCGTTTTTCATA [XGTACX_site6135],7.87 ± 0.63
17,AACAGACAAAGACACACACACATACATACATACATA [CACACA_site6351],8.28 ± 0.55
18,TATCATATTTTTATATGTACATAACATAAAAAAAAA [XGTACX_site2152],7.71 ± 0.2
